Test results: the RNAGym collection of RNA variant scans (doi:10.1073/pnas.2313332121)
Variants at the background level are over-represented here.

B1: TPR 5TU (parent)
chain: GGAUCUUCUCGAUCUAACAAAAAAGACAAAUCUGCCACAAAGCUUGAGAGCAUCUUCGGAUGCAGAGGCGGCAGCCUUCGGUGGCGCGAUAGCGCCAACGUUCUCAACUAUGACACGCAAAACGCGUGCUCCGUUGAAUGGAGUUUAUCAUG

Variants of: B1
Experiment: polymerase ribozyme fitness, log enrichment relative to wild type (log ratio); higher = more active; in vitro selection for triplet polymerase activity
How it was run: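 One round of in vitro selection, in triplicate, was applied to PCR-built, transcribed mutant libraries of each subunit of a heterodimeric triplet polymerase ribozyme. The steps were annealing with a biotinylated primer, partner subunit and triplets, incubation frozen at −7 °C, gel excision of extended constructs, streptavidin-bead capture and RT-PCR. Fitness is the logarithm, base 2, of genotype enrichment over wild-type enrichment from inverse-variance-weighted replicate averages of Illumina-sequenced inputs and outputs, keeping genotypes with ≥10 input reads and ≥1 read per output.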

Variant	polymerase ribozyme fitness (log ratio)
U4G A20C C43U U55A G59U A60G C87A A121G G141C	≤ -4.2
U4A C43U G65U U77C U111G	≤ -4.2
U4G G50C G59U C87U C116A G140U	≤ -4.2
U4G A24G G50A G62U C75A G92U G117A G136C	≤ -4.2
U4A A12U G80U G81U G92C	-0.513
U4C C18A C54A U55G C85G	≤ -4.2
U4G U13G C93U A120G G143A U148C	≤ -4.2
U4A C10G A24U A37U C93U C114G C129U	≤ -4.2
U4G C54G C95G	-3.63
U4C U44C A60U U77G G124U A150C	≤ -4.2
U4A A17U A22G C35U C75A C79A G92C	≤ -4.2
U4C C18G A40C A49G U135G	≤ -4.2
U4C A29U C36G C76A G86A	≤ -4.2
U4G U55A C93U G136C	≤ -4.2
U4G A23U A29U C35U U77A C99A C125G U134G	≤ -4.2
U4A A17U C27G U77G C93G	≤ -4.2
U4G A52G G68C A106G A142C U148G G152U	≤ -4.2
U4A A19U C27U G86A C129U G152A	≤ -4.2
U4A A24C C38A U53C C95U C132U	≤ -4.2
U4A G50A A52U A66C C85A	≤ -4.2
U4G U31G A49C C51A G94U	≤ -4.2
U4G A22U G50C G86U C132G	≤ -4.2
U4G A40G C72G C87U U104G C118U A122G	≤ -4.2
U4A C8G U53G G71U A73G C79G C85G C87A G88U G92U A115G	≤ -4.2

Variant	polymerase ribozyme fitness (log ratio)
U4G A49G C75A	≤ -4.2
U4A A17U A40C A52G G58A C76G C93U U127G G141A	≤ -4.2
A3U U7G A28G G80A C87A A97U U101G G117A U151A	≤ -4.2
U4G C36U C87A A120U A150C	≤ -4.2
A3U U61G G70U C75U C93U G140U	≤ -4.2
U4A A12U G84A A89G	-0.965
U4G U9A A22C G83U C95A C116A U151A	≤ -4.2
U4G A37G U44G C72U C93G A97G A98C G141U	≤ -4.2
C5A A16C C57U G80C A89U C96A C118U U146G A147U	≤ -4.2
U4G G11C A40U G50C G83U	≤ -4.2
U4G A24G A47C C51A C54A C76G U82G G86U A115G	≤ -4.2
U4G U7C A49C C76G A91U	≤ -4.2
U4A G50C U56G C85G C105A C108G U127C	≤ -4.2
U4C C43U G92U A121G G143C	≤ -4.2
U4C G42A G92A A120G G126C G141A	≤ -4.2
U4A A17C C18A A19G G59U C95G A115U C131U U139C	≤ -4.2
U4C A49G C51A C87A C132U A150C	≤ -4.2
U4C C10U A24U G62U C93G	≤ -4.2
U4C C8G G88C	≤ -4.2
U4G C14G C76G	≤ -4.2
U4G A39U C85A U134G U151A	≤ -4.2
U4A U6A U7G G11A U31G C35G G58A C85G G126C	≤ -4.2
U4C C32U C93U A115U	≤ -4.2
U4C A17G U55A A66G G88C U127G	≤ -4.2

Variant	polymerase ribozyme fitness (log ratio)
U4A U13G C35G U55A C76A G140A	≤ -4.2
U4A A21U G34U C75G U90A C95G C103A C131G U134C A137U	≤ -4.2
A3U U9A C57U G74A G124U A138G	≤ -4.2
C5A A12U	0.264
A3U U55A	-0.84
U4G U7C A30C C38U A98G	≤ -4.2
U4C C14A A17U G58U A66C G68C G126A U145G	≤ -4.2
U4G U6G A29G G88U	≤ -4.2
C5A A17C G88A G117U	-3.46
U4C C38G G59A U61A U148C	≤ -4.2
U4G G84A C96U C108A G143C	≤ -4.2
U4A U6G A26C C36U G46C U55A G92U	≤ -4.2
U4G U6A A22U A24G C72A A106G C123U U151A	≤ -4.2
A3U U9A G11C C35A A37G G50C U90G C95U U101G C116U	≤ -4.2
U4A A19U G65U G74U A91U	≤ -4.2
U4C A37C A40U A49G C79G C85A U127A C149A	≤ -4.2
U4A A60C G71U G92C C108G G117A G124U A137C	≤ -4.2
A3U U13C A41U C76U C123U	-2.89
U4G C32G C87U	≤ -4.2
U4C U7C A17U A41C G68C U78A C99A C103G	≤ -4.2
C5A A16U G59U	-1.5
U4A C8A A12G G92A C95A	≤ -4.2
U4C C14G A17G A91G C93A C96G C116G	≤ -4.2
U4A A30U A52U C93A	≤ -4.2

Variant	polymerase ribozyme fitness (log ratio)
U4A C14G U56G G84C C116U	≤ -4.2
U4G A39U G50C G58A C87A G100A	≤ -4.2
U4C C76A C93U G141C	≤ -4.2
U4C A12C A24U C27G A28G U44A G88A C116U G143A	≤ -4.2
U4C C35G A60C C108G	≤ -4.2
U4G A21U U31A G84U A115C	-3.65
U4A C85G C93G	≤ -4.2
U4A U56A G59A C87G U90G A137U G143C U146C	≤ -4.2
U4A C85U	-1.53
U4C A17C G42A G50C U53A G62A U90G A120U	≤ -4.2
U4A U7G G84U G92C U148G	≤ -4.2
U4G C75G A91U G92A U101G U146C	≤ -4.2
U4C U7G A19U A20G G34U C96U G100A A110G G140C	≤ -4.2
U4C A17U C85A C96U A137U U144A	≤ -4.2
U4G A20C G48A G62U C85G C96U U127C	≤ -4.2
U4G U56A A64U G86A C95U A113G C131G U139C A142C	≤ -4.2
U4G G68U A73G G88U U139A	≤ -4.2
U4A G11A A28U G65A C72U G80U G84C A91C A97C A106C C118U G141U	≤ -4.2
U4C C5G U55A C75A G88C G133U	-4.17
U4G C8A U33G C38U C57A A73C C95G A119C	≤ -4.2
U4G G11C U44G	≤ -4.2
U4A G94A	-0.663
U4A C85A A106G U135G A142U	≤ -4.2
U4C U53G G92U U104A A106C	≤ -4.2

Variant	polymerase ribozyme fitness (log ratio)
U4A U55A A64C	≤ -4.2
U4C A12G C14U A40G G50A G84U U145C	≤ -4.2
U4C A24U G81A C85U A89C	-0.962
C5A A19C A20U C75A C79G U82A	≤ -4.2
U4G A24U A39C C103G A121G	≤ -4.2
U4C C35U U55G C76G G133C U135G	≤ -4.2
U4C C10A A12U U53A G88C C96A	≤ -4.2
U4A U31C A41G A47C C57A C87G C95U U148A	≤ -4.2
U4C U9A C43U A66C G86A C114G A119U A137U A150G	≤ -4.2
U4G A49U C57U U82G A91U	≤ -4.2
U4G G74A G84U U109A	≤ -4.2
U4G C8G C14G A24G U45A C85A G86U G140A U145A U146C	≤ -4.2
U4C U9A A16U C85U U101G A122C A150G	≤ -4.2
U4C G58U C75A A91U U104G U144A C149U	≤ -4.2
U4G C76U G83U A98C A138C U139G	≤ -4.2
C5A A17C G25U C75A C93U	≤ -4.2
U4C A22C A47C G62A U77G U109G	≤ -4.2
A3U U45A C96A	-3.51
U4G U56A C72A C87G C99U	≤ -4.2
U4C U55A C57G C79G G88C U134A	≤ -4.2
U4C C5U U33A U44C A47G A60G G94U	≤ -4.2
U4A G48U C57G C93U G136A U146G	-2.55
U4G A39U A40U A91U C95G	≤ -4.2
U4A G62C C63U C79A C85U A98U C99U C131A U135C U144A	≤ -4.2

Variant	polymerase ribozyme fitness (log ratio)
U4A G74A U77C G83U C96U	≤ -4.2
U4A C5U G25C G80A C95U C96U C103U G126U U144A	≤ -4.2
U4A U61A A64U G65A C103A G141A U145A	≤ -4.2
C5A A19U A22U C57G C85A G140U	≤ -4.2
U4C U6G G42C A60G A66C C85U A107U C114U C125G	≤ -4.2
U4A C18G A37U A47G G70C U134A	≤ -4.2
U4C A49C A52C C99A C132U G136U G140U	≤ -4.2
U4G U90A G94U C95U C116G C118G C123G	≤ -4.2
C5A A17U U44A A52C C85U G92C G140U U145A	≤ -4.2
U4C C35G A37G A39C G48A U61G U82C G84U	≤ -4.2
A3U U55A A66U G81C C96U G117A C118A A119G	≤ -4.2
U4A C8A A20U A29C A40G G70C U101A A120U	≤ -4.2
U4G A21G A29G A60U A66G C93A C116A U146C	≤ -4.2
U4C A40C G83C G112C	≤ -4.2
C5A A19U A120U C125U U135C A137C	≤ -4.2
U4G C38U C93G	-2.52
U4A A20U G50C U55A A73G G84A G88C C132U U135A	≤ -4.2
U4A A147C	-0.789
U4C A29C C43U G50C C95A A113G A121C	≤ -4.2
U4A U15G A29U A49G G50C U56A C79U G84U A98C U146A	≤ -4.2
U4A A19U G128U U130A	≤ -4.2
U4C C32U U44A U55A A60U C75A A97G G133A G136A	≤ -4.2
U4G A97U	0.0622
U4C U15A G68U C93G	≤ -4.2

Variant	polymerase ribozyme fitness (log ratio)
U4G A26U G50U C87A G141A A150U	≤ -4.2
U4G A24U G62U C87U A89U	-3.44
U4A G143U	-3.47
U4G G11U G59A C93U C125U U144C	≤ -4.2
U4G A28C A29C C87U C116U G141A	≤ -4.2
U4G C14A A26C C27U C99U U104G	≤ -4.2
U4A A17U A28G	≤ -4.2
U4G U33A C54G U56A C118U A121U G126A	≤ -4.2
U4A A20G C35A U55G C72U C99U A120U U146A	≤ -4.2
U4C C57A C87A U146A A150C	≤ -4.2
U4G A19G G59A C105U A107C	≤ -4.2
U4C A21G G68A C85G	≤ -4.2
U4G C10A C35U G83U G88C A120C G143A	-4.17
U4C C14U U15A A41C C93A C95U	≤ -4.2
U4C C54U C75U C96A U139A	≤ -4.2
U4A U13A A29C G50C A64C C93G U102A	≤ -4.2
U4C A30C C35U A97C C105G U127G U139C A142G	≤ -4.2
A3U U44A G58C C85A C103U C118G A119U G136U A150U	≤ -4.2
U4C A66U U82A G88C C96U U102A	≤ -4.2
U4G U7G C27U G50A G126C	≤ -4.2
U4G U6A A17U C87U C93U G126A G136U	≤ -4.2
U4A A12U G81C C87G C93G A98U C118U G133C	≤ -4.2
U4A C32U U61A C93A A137C	≤ -4.2
